Measurements reported in the supplement of paper PMC12582362.
Structures can show the parent of a compound that is named as a salt. Out of some 1,500 compounds screened, about 30 (2%) showed activity.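 How the source made its calls: active = robust z-score below -2; a few such results were not called.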 The list shows a part of the results.

Tested on: optoTopBP1 Flp-In 293 T-REx (HEK293) cells
Test: light-induced TopBP1 condensate (nuclear foci) count, plate-normalised robust z-score vs non-control wells; higher = more TopBP1 condensates (negative = condensation inhibitor), active = hit call of the paper
Settings: 10 µM; incubation time 2 h

| SMILES | light-induced TopBP1 condensate (z-score) |
| --- | --- |
| CC(=O)O[C@H]1C[C@H](O[C@H]2[C@@H](O)C[C@H](O[C@H]3[C@@H](O)C[C@H](O[C@H]4CC[C@@]5(C)[C@H](CC[C@@H]6[C@@H]5C[C@@H](O)[C@]5(C)[C@@H](C7=CC(=O)OC7)CC[C@]65O)C4)O[C@@H]3C)O[C@@H]2C)O[C@H](C)[C@H]1O[C@@H]1O[C@H](CO)[C@@H](O)[C@H](O)[C@H]1O [Lanatoside C] | inactive: -1.56 |
| COc1ccc(CCN2CCC(Nc3nc4ccccc4n3Cc3ccc(F)cc3)CC2)cc1 [Astemizole] | inactive: -0.731 |
| CC1(C)C(C=C(Cl)Cl)C1C(=O)OC(C#N)c1cccc(Oc2ccccc2)c1 (configuration not stated) [Cypermethrin] | inactive: 1.09 |
| Oc1cc(Cl)ccc1Oc1ccc(Cl)cc1Cl [Triclosan] | inactive: 0.585 |
| C[N+]1([O-])[C@@H]2C[C@@H](OC(=O)[C@H](CO)c3ccccc3)C[C@H]1[C@@H]1O[C@@H]12 (some centres not stated) [Scopolamin-N-oxide hydrobromide] | inactive: -0.439 |
| CCN(CC)C(C)C(=O)c1ccccc1 (configuration not stated) [Amfepramone hydrochloride] | inactive: 0.658 |
| C[C@]12CC[C@@H]3c4ccc(OC(=O)N(CCCl)CCCl)cc4CC[C@H]3[C@@H]1CC[C@@H]2O [Estramustine] | inactive: -1.4 |
| CCC1(c2ccc(N)cc2)CCC(=O)NC1=O (configuration not stated) [Glutethimide, para-amino] | inactive: -0.727 |
| CCN(C)C(=O)Oc1cccc([C@H](C)N(C)C)c1 [Rivastigmine] | inactive: -0.679 |
| CC[C@@]1([C@@H]2O[C@@H]([C@H]3O[C@@](O)(CO)[C@H](C)C[C@@H]3C)C[C@@H]2C)CC[C@H]([C@]2(C)CC[C@]3(C[C@H](O)[C@@H](C)[C@@H]([C@@H](C)[C@@H](OC)[C@H](C)C(=O)O)O3)O2)O1 [Monensin sodium salt] | inactive: 0.406 |
| CN(C)C(=O)Oc1cc(OC(=O)N(C)C)cc(C(O)CNC(C)(C)C)c1 (configuration not stated) [Bambuterol hydrochloride] | inactive: 0.59 |
| CCn1cc(C(=O)O)c(=O)c2cc3c(cc21)OCO3 [Oxolinic acid] | inactive: 0.396 |
| C[C@]12CC[C@H](O)C[C@@H]1CC[C@@H]1[C@@H]2CC[C@]2(C)C(=O)CC[C@@H]12 [Epiandrosterone] | inactive: -0.588 |
| NCC(O)c1ccc(O)cc1 (racemic) [(+,-)-Octopamine hydrochloride] | inactive: -1.15 |
| CN1[C@@H]2CC[C@H]1C[C@@H](OC1c3ccccc3CCc3ccccc31)C2 [Deptropine citrate] | inactive: -0.947 |
| CCN[C@@H](C)Cc1cccc(C(F)(F)F)c1 [Dexfenfluramine hydrochloride] | inactive: -1.62 |

| SMILES | light-induced TopBP1 condensate (z-score) |
| --- | --- |
| CC(C)=CC1C(C(=O)OCc2cccc(Oc3ccccc3)c2)C1(C)C (configuration not stated) [Phenothrin] | inactive: -0.16 |
| C[CH2][Hg][S]c1ccccc1C(=O)[O-].[Na+] [Thimerosal] | active: -8.21 |
| NC(=O)CN1CC(O)CC1=O (configuration not stated) [Oxiracetam] | inactive: -0.722 |
| CC[C@H](C)[C@H]1O[C@]2(C=C[C@@H]1C)C[C@@H]1C[C@@H](C/C=C(\C)[C@@H](O[C@H]3C[C@H](OC)[C@@H](O[C@H]4C[C@H](OC)[C@@H](O)[C@H](C)O4)[C@H](C)O3)[C@@H](C)/C=C/C=C3\CO[C@@H]4[C@H](O)C(C)=C[C@@H](C(=O)O1)[C@]34O)O2.CO[C@H]1C[C@H](O[C@H]2[C@H](C)O[C@@H](O[C@@H]3/C(C)=C/C[C@@H]4C[C@@H](C[C@]5(C=C[C@H](C)[C@@H](C(C)C)O5)O4)OC(=O)[C@@H]4C=C(C)[C@@H](O)[C@H]5OC/C(=C\C=C\[C@@H]3C)[C@]54O)C[C@@H]2OC)O[C@@H](C)[C@@H]1O [Avermectin B1] | inactive: 2.02 |
| C[C@]12CCC(=O)C=C1CC[C@@H]1[C@@H]2C(=O)C[C@]2(C)C(=O)CC[C@@H]12 [Adrenosterone] | inactive: -0.361 |
| Nc1ccncc1 [Dalfampridine] | inactive: 0.554 |
| C[N+]1(C)CCOC(O)(c2ccc(-c3ccc(C4(O)C[N+](C)(C)CCO4)cc3)cc2)C1 (configuration not stated) [Hemicholinium bromide] | inactive: -0.655 |
| CC[C@@H](C(N)=O)N1CCCC1=O [Levetiracetam] | inactive: -0.9 |
| COc1ccc(C(=O)N2CCCC2=O)cc1 [Aniracetam] | inactive: -1.43 |
| CCCN1C[C@H](CSC)C[C@@H]2c3cccc4[nH]cc(c34)C[C@H]21 [Pergolide mesylate] | inactive: -0.94 |
| COc1ccc(CCN)cc1OC [Homoveratrylamine] | inactive: -1.31 |
| CC[C@@]1(O)C(=O)OCc2c1cc1n(c2=O)Cc2cc3ccccc3nc2-1 [Camptothecine (S,+)] | inactive: -1.28 |
| N#Cc1nn(-c2c(Cl)cc(C(F)(F)F)cc2Cl)c(N)c1[S+]([O-])C(F)(F)F (configuration not stated) [Fipronil] | inactive: -0.169 |
| CCC(=O)O[C@@](Cc1ccccc1)(c1ccccc1)[C@@H](C)CN(C)C [Levopropoxyphene napsylate] | inactive: 0.58 |
| C[N+](C)(C)CCCCCCCCCC[N+](C)(C)C [Decamethonium bromide] | inactive: 0.408 |
| C[N+]1(C)[C@@H]2CC[C@H]1C[C@@H](OC(=O)C(CO)c1ccccc1)C2 (some centres not stated) [Methylatropine nitrate] | inactive: -0.568 |
